According to patent US5393740A, “Neurotensin Hexapeptides” (Tsumura & Co., priority 1991, dated 1995):
Part of at least one peptide drawing is inferred or uncertain, most often the ends. Some results were stated once for a whole list of compounds, not compound by compound. Where a SMILES comes first, the peptide text is derived from it. [ ]: non-standard residue; d: D form. The star is where a group is joined. Pentanoyl(5-guanidino) = NC(N)=NCCCCC(=O)*; NMeL = CN[C@@H](CC(C)C)C(=O)O; Leu(ol) = CC(C)C[C@H](N)CO; X1 = CC(C)C[C@@H](CO)N(C)*

Test system: Sprague-Dawley (SD) rats
Assay: Vascular permeability acceleration suppression action (hot-water leg edema)
Assay type: in vivo, rat
Details: for vascular permeability acceleration suppression action (in words): hot-water leg edema, SD rats; for Suppression Rate (%): suppression of rate of increase in leg volume vs control, 1 ml/kg into femoral vein 10 minutes before dipping leg in 58° C. hot water for one minute, male SD rats
Procedure: After 6-week male Sprague-Dawley (SD) rats (each group consisted of 10 rats) were fed for a week, they were used in this experiment.
The concentrations of samples of the hexapeptides (peptide Nos. 1 to 30) were dissolved by an acetic acid buffer solution added with a 1% bovine serum albumin (BSA).
An aliqrot of 1 ml/kg of each of the peptides Nos. 1 to 30 was injected into the femoral vein of the right leg of each rat anesthetized with 50 mg/kg of Nembutal Sodium (available from Dainippon Pharmaceutical Co., Ltd.). After 10 minutes, the nontreated left leg of the rat was dipped in 58° C. hot water for one minute to form an edema. Each rat was left at room temperature for 29 minutes, and the volumes of both legs of each rat were measured. As a control, the experiment following the same procedure as describe above was performed except that 1 ml/kg of a sodium acetate buffered solution containing 1% BSA instead of the hexapeptide of the present invention was injected in rats.
A rate (%) of increase in leg volume was calculated from the result of the above measurement by equation (1) below: [formula]
The rates were compared with that of the control.
- X: rate of increase in leg volume (%) of the present invention.
Xo: rate of increase in leg volume (%) of the control

CC[C@H](C)[C@H](NC(=O)[C@H](Cc1ccc(O)cc1)NC(=O)[C@@H]1CCCN1C(=O)[C@H](CCCNC(=N)N)NC(=O)CCCCNC(=N)N)C(=O)N(C)[C@@H](CC(C)C)C(=O)O [Peptide No. 6, Desamino-Arg--Arg--Pro--Tyr--Ile--(NCH3)Leu--OH]
vascular permeability acceleration suppression action (in words): confirmed to have a vascular permeability acceleration suppression action and could suppress edemata
Suppression Rate (%): 53.9%

CC[C@H](C)[C@H](NC(=O)[C@H](Cc1ccc(O)cc1)NC(=O)[C@@H]1CCCN1C(=O)[C@@H](CCCNC(=N)N)NC(=O)CCCCNC(=N)N)C(=O)N[C@H](CO)CC(C)C [compound 22, Desamino-Arg-D-Arg--Pro--Tyr--Ile-Leucinol]
vascular permeability acceleration suppression action (in words): confirmed to have a vascular permeability acceleration suppression action and could suppress edemata
Suppression Rate (%): 16.9%

CC[C@H](C)[C@H](NC(=O)[C@H](Cc1c[nH]c2ccccc12)NC(=O)[C@@H]1CCCN1C(=O)[C@@H](CCCCN)NC(=O)CCCCNC(=N)N)C(=O)N[C@H](CO)CC(C)C [Peptide No. 27, Desamino-Arg-D-Lys--Pro--Trp--Ile-Leucinol] ({Pentanoyl(5-guanidino)}-[dK]PWI[Leu(ol)])
vascular permeability acceleration suppression action (in words): confirmed to have a vascular permeability acceleration suppression action and could suppress edemata
Suppression Rate (%): 18.2%

CC[C@H](C)[C@H](NC(=O)[C@H](Cc1c[nH]c2ccccc12)NC(=O)[C@@H]1CCCN1C(=O)[C@H](CCCNC(=N)N)NC(=O)CCCCNC(=N)N)C(=O)N(C)[C@H](CO)CC(C)C [Peptide No. 29, Desamino-Arg--Arg--Pro--Trp--Ile--(NCH3)Leucinol] ({Pentanoyl(5-guanidino)}-RPWI-X1)
vascular permeability acceleration suppression action (in words): confirmed to have a vascular permeability acceleration suppression action and could suppress edemata
Suppression Rate (%): 17.9%

CC[C@H](C)[C@H](NC(=O)[C@H](Cc1c[nH]c2ccccc12)NC(=O)[C@@H]1CCCN1C(=O)[C@@H](CCCCN)NC(=O)CCCCNC(=N)N)C(=O)N(C)[C@@H](CC(C)C)C(=O)O [Peptide No. 10, Desamino-Arg-D-Lys--Pro--Trp--Ile--(NCH3)Leu--OH] ({Pentanoyl(5-guanidino)}-[dK]PWI[NMeL]-OH)
vascular permeability acceleration suppression action (in words): confirmed to have a vascular permeability acceleration suppression action and could suppress edemata
Suppression Rate (%): 54.1%

CC[C@H](C)[C@H](NC(=O)[C@H](Cc1ccc(O)cc1)NC(=O)[C@@H]1CCCN1C(=O)[C@H](CCCNC(=N)N)NC(=O)CCCCNC(=N)N)C(=O)N[C@H](CO)CC(C)C [Peptide No. 21, Desamino-Arg--Arg--Pro--Tyr--Ile-Leucinol]
vascular permeability acceleration suppression action (in words): confirmed to have a vascular permeability acceleration suppression action and could suppress edemata
Suppression Rate (%): 19.7%

CC[C@H](C)[C@H](NC(=O)[C@H](Cc1ccc(O)cc1)NC(=O)[C@@H]1CCCN1C(=O)[C@@H](CCCCN)NC(=O)CCCCNC(=N)N)C(=O)N[C@@H](CC(C)C)C(=O)O [Peptide No. 3, Desamino-Arg-D-Lys--Pro--Tyr--Ile--Leu--OH] ({Pentanoyl(5-guanidino)}-[dK]PYIL-OH)
vascular permeability acceleration suppression action (in words): confirmed to have a vascular permeability acceleration suppression action and could suppress edemata
Suppression Rate (%): 70.8%

CC[C@H](C)[C@H](NC(=O)[C@H](Cc1c[nH]c2ccccc12)NC(=O)[C@@H]1CCCN1C(=O)[C@@H](CCCCN)NC(=O)CCCCNC(=N)N)C(=O)N(C)[C@H](CO)CC(C)C [Peptide No. 30, Desamino-Arg-D-Lys--Pro--Trp--Ile--(NCH3)Leucinol] ({Pentanoyl(5-guanidino)}-[dK]PWI-X1)
vascular permeability acceleration suppression action (in words): confirmed to have a vascular permeability acceleration suppression action and could suppress edemata
Suppression Rate (%): 12.6%

CC[C@H](C)[C@H](NC(=O)[C@H](Cc1ccc(O)cc1)NC(=O)[C@@H]1CCCN1C(=O)[C@H](CCCNC(=N)N)NC(=O)CCCCNC(=N)N)C(=O)N(C)[C@H](CO)CC(C)C [Peptide No. 26, Desamino-Arg--Arg--Pro--Tyr--Ile--(NCH3)Leusinol] ({Pentanoyl(5-guanidino)}-RPYI-X1)
vascular permeability acceleration suppression action (in words): confirmed to have a vascular permeability acceleration suppression action and could suppress edemata
Suppression Rate (%): 14.3%

CCOC(=O)[C@H](CC(C)C)NC(=O)[C@@H](NC(=O)[C@H](Cc1ccc(O)cc1)NC(=O)[C@@H]1CCCN1C(=O)[C@H](CCCNC(=N)N)NC(=O)CCCCNC(=N)N)[C@@H](C)CC [Peptide No. 11, Desamino-Arg--Arg--Pro--Tyr--Ile--Leu--OEt]
vascular permeability acceleration suppression action (in words): confirmed to have a vascular permeability acceleration suppression action and could suppress edemata
Suppression Rate (%): 22.8%

CCOC(=O)[C@H](CC(C)C)N(C)C(=O)[C@@H](NC(=O)[C@H](Cc1c[nH]c2ccccc12)NC(=O)[C@@H]1CCCN1C(=O)[C@@H](CCCCN)NC(=O)CCCCNC(=N)N)[C@@H](C)CC [Peptide No. 20, Desamino-Arg-D-Lys--Pro--Trp--Ile--(NCH3)Leu--OEt] ({Pentanoyl(5-guanidino)}-[dK]PWI[NMeL]-OEt)
vascular permeability acceleration suppression action (in words): confirmed to have a vascular permeability acceleration suppression action and could suppress edemata
Suppression Rate (%): 19.4%

CCOC(=O)[C@H](CC(C)C)NC(=O)[C@@H](NC(=O)[C@H](Cc1c[nH]c2ccccc12)NC(=O)[C@@H]1CCCN1C(=O)[C@H](CCCNC(=N)N)NC(=O)CCCCNC(=N)N)[C@@H](C)CC [Peptide No. 14, Desamino-Arg--Arg--Pro--Trp--Ile--Leu--OEt] ({Pentanoyl(5-guanidino)}-RPWIL-OEt)
vascular permeability acceleration suppression action (in words): confirmed to have a vascular permeability acceleration suppression action and could suppress edemata
Suppression Rate (%): 17.5%

CC[C@H](C)[C@H](NC(=O)[C@H](Cc1ccc(O)cc1)NC(=O)[C@@H]1CCCN1C(=O)[C@@H](CCCNC(=N)N)NC(=O)CCCCNC(=N)N)C(=O)N[C@@H](CC(C)C)C(=O)O [Peptide No. 2, Desamino-Arg-D-Arg--Pro--Tyr--Ile--Leu--OH]
vascular permeability acceleration suppression action (in words): confirmed to have a vascular permeability acceleration suppression action and could suppress edemata
Suppression Rate (%): 77.4%

CC[C@H](C)[C@H](NC(=O)[C@H](Cc1ccc(O)cc1)NC(=O)[C@@H]1CCCN1C(=O)[C@@H](CCCCN)NC(=O)CCCCNC(=N)N)C(=O)N(C)[C@@H](CC(C)C)C(=O)O [Peptide No. 8, Desamino-Arg-D-Lys--Pro--Tyr--Ile--(NCH3)Leu--OH] ({Pentanoyl(5-guanidino)}-[dK]PYI[NMeL]-OH)
vascular permeability acceleration suppression action (in words): confirmed to have a vascular permeability acceleration suppression action and could suppress edemata
Suppression Rate (%): 58.7%

CCOC(=O)[C@H](CC(C)C)NC(=O)[C@@H](NC(=O)[C@H](Cc1c[nH]c2ccccc12)NC(=O)[C@@H]1CCCN1C(=O)[C@@H](CCCCN)NC(=O)CCCCNC(=N)N)[C@@H](C)CC [Peptide No. 17, Desamino-Arg-D-Lys--Pro--Trp--Ile--Leu--OEt] ({Pentanoyl(5-guanidino)}-[dK]PWIL-OEt)
vascular permeability acceleration suppression action (in words): confirmed to have a vascular permeability acceleration suppression action and could suppress edemata
Suppression Rate (%): 11.9%
